Measurements from PubChem BioAssay AID485294 (National Center for Advancing Translational Sciences (NCATS), 2010).
The whole screen tested about 370,000 compounds, of which about 150 (0.041%) were called active. The shares of active, inactive and inconclusive entries below differ from those in the screen. Calls come from the whole dose curve; as a rule, active = well fitted inhibition curve with a large enough effect; inconclusive = small, poorly fitted or top-dose-only effect; inactive = flat fitted curve, though single readings scatter. Potencies of inconclusive entries are left out as doubtful fits.

These compounds were tested against Beta-lactamase (Escherichia coli (strain K12)) (UniProt P00811) (assay: qHTS Inhibitors of AmpC Beta-Lactamase (assay with detergent)). Conditions: AmpC hydrolysis of nitrocefin, absorbance 480 nm, 0.01% Triton; activity change, negative = inhibition: at 114 µM (top of the series).
Protocol: NIH Molecular Libraries Probe Production Network [MLPCN] NIH Chemical Genomics Center [NCGC] Assay Provider: Professor Brian Shoichet, UCSF Assay Overview: This aggregation profiling approach exploits the sensitivity of aggregate formation to detergent. Inhibition of b-lactamase is measured in the presence and absence of 0.01% Triton X-100. This particular assay had the prescence of 0.01% Triton X-100. See Pubchem assay "Promiscuous and Specific Inhibitors of AmpC Beta-Lactamase (assay without detergent)" for related screen. Compounds that inhibit only in the absence of detergent are considered likely promiscuous aggregators. A screen of 1,030 compounds was performed in Brian Shoichet's lab in 96-well format. AmpC activity was measured by following the absorbance at 480 nm. Nitrocefin is a chromogenic substrate: while nitrocefin is yellow (lmax 390 nm), the product of its hydrolysis is red (lmax 486 nm, 17,000 M-1). AmpC beta lactamase was provided by Shoichet Lab, UCSF.
Buffer: 20 mM phosphate buffer, pH 7.0 Triton X-100: No Detergent screen: 0.0001%, Detergent screen: 0.01%. Reagents/Controls: Buffer in columns 3 and 4 as negative control (no enzyme). 5.3 nM AmpC in columns 1, 2, 5-48. Titration of UCSF compound 9 control (from 10 mM, then 1:2) pin-transferred to column 2. Column 1 is neutral (100% activity). Assay Steps: Six uL of reagents were dispensed to 1536-well Greiner black clear bottom plates. Compounds and controls (23 nL) were transferred via Kalypsys PinTool. The plates were incubated for 15 min at room temperature, and then 2 uL of 800 uM solution of nitrocefin was added to start the reaction. The plates were immediately transferred to and read every 20 seconds for 4 min on ViewLux (Perkin-Elmer) High-throughput CCD imager using 480 nm absorbance protocol. During dispense, reagent bottles were kept submerged into 4 deg C water bath. Keywords: NIH Roadmap, MLSCN, MLI, MLSMR, qHTS, NCGC, AmpC Beta-Lactamase, Aggregation
Note: nearly all actives have a fitted effect of over 25% in size.
Potency is the fitted concentration of half-maximal effect; tags give direction and shape of the fitted curve.
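Throughout, for activity change, negative = inhibition: 0% = no-compound wells and -100% = no-enzyme wells.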

UniProt P00811, sequence (P00811 whole entry, looked up): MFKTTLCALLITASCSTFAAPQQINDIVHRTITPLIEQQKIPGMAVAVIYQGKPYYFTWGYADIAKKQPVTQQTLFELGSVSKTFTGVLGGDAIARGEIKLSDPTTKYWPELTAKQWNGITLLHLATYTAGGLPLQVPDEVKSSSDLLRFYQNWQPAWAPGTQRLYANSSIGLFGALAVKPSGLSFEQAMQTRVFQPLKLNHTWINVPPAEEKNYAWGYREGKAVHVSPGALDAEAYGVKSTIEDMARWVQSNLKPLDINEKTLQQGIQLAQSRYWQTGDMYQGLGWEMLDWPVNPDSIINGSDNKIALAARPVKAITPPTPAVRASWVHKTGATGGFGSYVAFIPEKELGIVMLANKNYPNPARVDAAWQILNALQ

| SMILES | activity change, negative = inhibition | Potency |
| --- | --- | --- |
| CCN1CCN(c2ncc(C(=O)Nc3ccccc3C(=O)OC)c3ccccc23)CC1 | inactive: -11.8% |  |
| O=c1oc2ccc(F)cc2c2c1C1O[C@](c3ccsc3)(Cc3c1ccc1ccccc31)O2 | inactive: -6.8% [at 22.9 µM] |  |
| Cn1c(=O)c2c(nc(Br)n2CC(=O)C23CC4CC(CC(C4)C2)C3)n(C)c1=O |  | inconclusive [inhibitor, full curve, poor fit] |
| O=C(NCc1cccnc1)c1cn(-c2ccccc2)nc1-c1cccs1 |  | inconclusive [inhibitor, partial curve, poor fit] |
| COCCCn1c(=O)c2sccc2n2c(CCCC(=O)Nc3cc(C)cc(C)c3)nnc12 | inactive: 1.93% |  |
| CCC(=O)Nc1ccc(OC)cc1OC |  | inconclusive [inhibitor, partial curve, poor fit] |
| COC(=O)c1c(NC(=O)COc2ccc(Cl)cc2)sc2c1CC(C)(C)NC2(C)C | inactive: -8.81% |  |
| COc1ccccc1CNC(=O)C1CCCN(C(=O)c2cnn(-c3ccc(F)cc3)c2-n2cccc2)C1 (configuration not stated) | inactive: 5.19% |  |
| COc1ccccc1OCCCSc1nc(-c2ccc(C(C)(C)C)cc2)nc2cc(=O)[nH]n12 |  | inconclusive [inhibitor, partial curve] |
| Cc1cccc(NC(=O)Cc2ccc(Br)cc2)n1 |  | inconclusive [inhibitor, partial curve, poor fit] |
| CCCn1c(CN2CCCCC2CC)nc2c1c(=O)n(C)c(=O)n2C (configuration not stated) |  | inconclusive [inhibitor, full curve, poor fit] |
| COc1ccc(Cl)cc1C(=O)NCCCn1ccnc1 |  | inconclusive [inhibitor, full curve, poor fit] |
| COc1ccc2nc(N3C(=O)/C(=C/c4ccccc4)NC3=S)sc2c1 |  | inconclusive [inhibitor, full curve] |
| CCCc1ccc2oc(C(=O)N3CCC(C(N)=O)(N4CCCCC4)CC3)c(C)c2c1 |  | inconclusive [inhibitor, full curve, poor fit] |
| Oc1c(Br)cc(Cl)cc1C=Nc1ccc(N2CCOCC2)cc1 | inactive: 1.14% |  |
| O=C(NCCc1c[nH]c2ccccc12)/C(=C/c1ccco1)NC(=O)c1ccco1 | inactive: 6.11% |  |
| CCOC(=O)c1sc(NCc2ccco2)c(-c2nc3ccccc3s2)c1N |  | inconclusive [inhibitor, full curve, poor fit] |
| O=C(COc1cc2oc(=O)c3c(c2cc1Cl)CCC3)NCCCN1CCOCC1 |  | inconclusive [inhibitor, single point] |
| O=C(Cn1c(=O)c2c(ncn2C2CCCC2)n(Cc2ccccc2)c1=O)N1CCc2ccccc21 |  | inconclusive [inhibitor, single point] |
| Nc1cc(-c2ccccc2)nn1S(=O)(=O)c1ccc(F)cc1 |  | inconclusive [inhibitor, partial curve] |
| NS(=O)(=O)OCCCc1ccc(C(F)(F)F)cc1 |  | inconclusive [inhibitor, full curve, poor fit] |
| CC1CN(C(=O)c2cc3ccccc3oc2=O)CC(C)O1 (configuration not stated) |  | inconclusive [inhibitor, partial curve, poor fit] |
| Cc1cc2oc(=O)cc(CN3CCN(C/C=C/c4ccccc4)CC3)c2cc1O | inactive: -5.33% |  |
| Cc1cccc(Nc2nc(-c3cccs3)cs2)n1 | inactive: 5.78% |  |

| SMILES | activity change, negative = inhibition | Potency |
| --- | --- | --- |
| CN(C)S(=O)(=O)c1cccc(C(=O)Nc2cc(S(=O)(=O)N3CCOCC3)ccc2O)c1 |  | inconclusive [inhibitor, single point] |
| CCOC(=O)C1(CC2CCCCO2)CCN(C(=O)Nc2ccccc2CC)CC1 (configuration not stated) | inactive: 7.33% |  |
| O=C(Cc1ccc2c(c1)OCCO2)N1CCN(c2ccccc2)CC1 |  | inconclusive [inhibitor, full curve, poor fit] |
| COc1ccc(-n2c(SCC(=O)NC3CCCCC3)nc3ccsc3c2=O)cc1 |  | inconclusive [inhibitor, partial curve, poor fit] |
| Clc1ccc(OCCSCc2nc3ccccc3[nH]2)cc1 | inactive: 2.13% |  |
| O=C(NCc1ccc2c(c1)OCO2)c1cc2c(s1)CSC2 | inactive: -14.3% |  |
| COC(C[C@@H](O)CC(=O)[C@@H](C)OCc1ccccc1)OC | inactive: -1.04% |  |
| CC(C)(C)C1CC=C2C(C#N)=C(N)C(C#N)(C#N)C(c3cccs3)C2C1 (configuration not stated) |  | inconclusive [inhibitor, partial curve, poor fit] |
| Cc1ccc(N2C(=O)C3N=NN(CC(=O)N4N=C(c5cccc6ccccc56)CC4c4ccccc4)C3C2=O)cc1 (configuration not stated) |  | inconclusive [inhibitor, partial curve, poor fit] |
| Cn1c(Cn2nnc3ccccc32)nnc1SCC(=O)N1c2ccccc2CCc2ccccc21 |  | inconclusive [inhibitor, full curve, poor fit] |
| O=C(CSc1cccc[n+]1[O-])CSc1cccc[n+]1[O-] | inactive: -1.67% |  |
| CCCC(=O)N1CCN(c2nc3ccccc3s2)CC1 | inactive: -5.67% |  |
| CC(/C=N/Nc1nnc(C)c(=O)[nH]1)=C\c1ccccc1 | inactive: -4.11% |  |
| Cc1ccc(SCc2[nH]nc3c2C(c2ccco2)C(C#N)=C(N)O3)cc1 (configuration not stated) |  | inconclusive [inhibitor, full curve, poor fit] |
| COc1ccccc1N1CCN(C(=O)C2CCN(S(=O)(=O)c3ccccc3)CC2)CC1 |  | inconclusive [inhibitor, full curve, poor fit] |
| COc1cc(C2C(C(=O)OC(C)C)=C(C)Nc3[nH]c(=O)[nH]c(=O)c32)ccc1O (configuration not stated) |  | inconclusive [inhibitor, full curve, poor fit] |
| Cc1cc(C)c(Nc2nn3c(=O)c4cc5c(cc4nc3s2)OCO5)c(C)c1 | inactive: 8.25% |  |
| Cc1cc(C)n2ncc(C(=O)NCc3cccnc3)c2n1 |  | inconclusive [inhibitor, partial curve, poor fit] |
| COc1cc(OC)c2c(c1O)OC(c1ccccc1)CC2=O (configuration not stated) | inactive: 4.08% |  |
| O=S1(=O)CCOC[C@H](CC2CCCCC2)N1Cc1ccccc1Br | inactive: 0% |  |
| CCC(CC)C(=O)NC12CC3CC(CC(C3)C1)C2 |  | inconclusive [inhibitor, single point] |
| Cc1nn(-c2ccc([N+](=O)[O-])cc2)c2c1C(c1cccc(Br)c1)N1C(=N2)C(=O)Nc2ccccc21 (configuration not stated) |  | inconclusive [inhibitor, full curve, poor fit] |
| O=C(Nc1cccc(Cl)c1N1CCCC1)c1cc2ccccc2o1 | inactive: -4.09% |  |
| CC(=O)Nc1ccc2nc(C3CCCCC3)[nH]c2c1 | inactive: -0.64% |  |

| SMILES | activity change, negative = inhibition | Potency |
| --- | --- | --- |
| Cc1ccc(C)c(NC(=O)C2CC=CCC2C(=O)O)c1 (configuration not stated) |  | inconclusive [inhibitor, full curve, poor fit] |
| COc1cccc(NC(=O)Cn2c(CCC(=O)O)ccc2-c2cccs2)c1 | inactive: -0.458% |  |
| CN1CCN(C(c2ccc(F)cc2)c2sc3nc(-c4ccco4)nn3c2O)CC1 (configuration not stated) | inactive: 1.53% |  |
| Cc1cccc(C(=O)Nc2cccc(C(=O)OCc3cc(=O)n4c5c(sc4n3)CCCC5)c2)c1 | inactive: 14.6% |  |
| O=C(c1cccc(F)c1)N1CCN(Cc2cccc(Br)c2)CC1 | inactive: -14.1% |  |
| NC1=NC(=O)/C(=C\C=C\c2ccccc2)S1 |  | inconclusive [inhibitor, full curve, poor fit] |
| CCc1ccc(S(=O)(=O)c2nnn3c2nc(NCc2cccs2)c2sccc23)cc1 | inactive: 0.737% |  |
| COc1ccc(NC(=O)Cn2nnc(C(=O)NCCc3ccc(OC)c(OC)c3)c2N)c(OC)c1 |  | inconclusive [inhibitor, full curve] |
| CCc1ccccc1Nc1nn2c(=O)c3ccc(C(=O)NCc4cccs4)cc3nc2s1 | inactive: -4.34% |  |
| COc1ccc(N2CCN(c3nc(Cl)nc(Nc4ccc(F)cc4)n3)CC2)cc1 |  | inconclusive [inhibitor, full curve, poor fit] |
| Cc1ccc(NC(=O)CCC(=O)NNS(=O)(=O)c2ccccc2)c(C)c1 |  | inconclusive [inhibitor, full curve] |
| CCOC(=O)c1cnn(-c2ccccc2)c1-n1cccc1C(=O)C(=O)Nc1ccccc1 |  | inconclusive [inhibitor, single point] |
| Cn1c(=O)oc2cc(S(=O)(=O)N3CCC(C(=O)N4CCc5ccccc5C4)CC3)ccc21 |  | inconclusive [inhibitor, full curve, poor fit] |
| CCOC(=O)Cn1c(=O)oc2cc(S(=O)(=O)Nc3cc(OC)cc(OC)c3)ccc21 | inactive: -12.8% |  |
| Cc1ccc(NC(=O)N2CCC(=O)N2)cc1 | inactive: -12% |  |
| CCc1ccc(CNC(=O)C(CC)n2ccc3cc(S(=O)(=O)N4CCCCC4)ccc32)cc1 (configuration not stated) | inactive: 8.43% |  |
| CN(C)/N=C/C=C1\CCC/C(=C\c2ccc(F)c(F)c2)C1=O | inactive: 2.48% |  |
| CCOC(=O)c1sc(NC(C)=O)nc1-c1ccccc1 |  | inconclusive [inhibitor, partial curve] |
| COc1ccc(S(=O)(=O)N2CCCC(C(=O)O)C2)cc1Cl (configuration not stated) | inactive: 1.26% |  |
| COc1cc2c(c(OC)c1OC)-c1ccc(OC)c(=O)cc1[C@@H](N(C)CC#CCO)CC2 | inactive: -1.19% |  |
| Cc1ccc(C)c(N2CCN(C(=O)C3CCN(S(=O)(=O)c4cn(C)cn4)CC3)CC2)c1 |  | inconclusive [inhibitor, single point] |
| COc1ccc(CN2CCN(C(=O)Cn3ncn4cccc4c3=O)CC2)c(OC)c1OC |  | inconclusive [inhibitor, partial curve] |
| O=C(Nc1c(-c2ccccc2)nc2sccn12)c1ccccc1 | inactive: -1.27% |  |
| O=C(COc1ccccc1C(=O)NCc1ccncc1)Nc1ccc(Br)cc1 |  | inconclusive [inhibitor, partial curve, poor fit] |
